The whole screen tested about 210,000 compounds, of which about 5,900 (2.8%) were called active. The inconclusive results got no clear call from the source; some entries with a clear call stand among them for comparison. The call rests on the fitted dose curve; in most records, active means well fitted activation curve with a large enough effect; inconclusive means small, poorly fitted or top-dose-only effect; inactive means no such curve, though single readings can be large or run the other way. Where the call is inconclusive, the potency comes from a doubtful curve fit.
Assay: qHTS Assay for Enhancers of SMN2 Splice Variant Expression; further: nearly all actives have a fitted effect of over 55% in size; on activity change, positive = activation: % of control where 0% means no effect
Details: HEK293 SMN2-luciferase splicing reporter, luminescence, 30-36 h; activity change, positive = activation: at 46.1 µM (top of the series)
How it was run: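 HEK293 cells carry an SMN2 […]–luciferase reporter in which exon 7 inclusion puts luciferase in frame. Cells were plated 10-12 h before compound addition, then incubated 30-36 h at 37C. ONE-Glo luminescence was read; sodium butyrate at 4.5 mM final served as control.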
Potency means the concentration at half of the fitted maximal effect; tags describe the fitted curve by direction and shape.

For `N#C/C(=C\c1ccncc1)c1nc2c(s1)CCCC2`, which Potency is on record?
The Potency was inconclusive: 12.6 µM [activator, partial curve].

Which Potency does the source give for `CCn1c(O)c(C=NCCN2CCOCC2)sc1=S` here?
Its Potency is inconclusive: 0.0562 µM [activator, full curve, poor fit].

With `Cc1cc(C(=O)CSc2ccc3c(c2)OCCO3)c(C)n1C1CC1` as the compound, how does the Potency read?
Its Potency is inconclusive: 35.5 µM [activator, single point].

For `COc1cc(NC(=O)CSc2nnc(C)s2)cc(OC)c1OC`, which Potency is on record?
The Potency was inconclusive: 12.6 µM [activator, single point].

For `CCOC(=O)N1CCC(N2C(=O)c3ccccc3C2Nc2ccc3c(c2)OCCO3)CC1` (centres undefined), which Potency is on record?
The Potency was “inactive”.

With `Cc1cccc(NC(=O)CC2SC(=O)N(c3ccccc3)C2=O)c1` (centres undefined) as the compound, how does the Potency read?
The Potency was inconclusive: 7.94 µM [activator, partial curve].

With `COCCNC(=O)c1cc2cc(Br)cc(Br)c2oc1=O` as the compound, how does the Potency read?
Its Potency is “inactive”.

For `O=C(NNC(=O)c1cccs1)c1ccc2ccccc2c1`, which Potency is on record?
The Potency was “inactive”.

For `O=C1c2ccccc2C(=O)C1c1ccc2ccccc2n1`, which Potency is on record?
Its Potency is active: 1 µM.

For `COc1ccc(C(=O)Nc2cc(Cl)ccc2Cl)c(OC)n1`, which Potency is on record?
The Potency was inconclusive: 8.91 µM [activator, partial curve, poor fit].

Which Potency does the source give for `Cc1oc2cc3oc(=O)c(CC(=O)NCc4ccccc4)c(C)c3cc2c1C` here?
Its Potency is “inactive”.

For `N[C@H](C(=O)O)c1ccc(C(=O)O)cc1`, which Potency is on record?
The Potency was “inactive”.

Which Potency does the source give for `CCOC(=O)Cc1csc(NC(=O)c2ccc3c(c2)OCO3)n1` here?
The Potency was inconclusive: 0.0355 µM [activator, full curve, poor fit].

For `CS(=O)(=O)c1ccc(C(=O)OCC(=O)NC(=O)C2CCCCC2)cc1[N+](=O)[O-]`, which Potency is on record?
Its Potency is “inactive”.

Which Potency does the source give for `COc1ccc(N2CCN(c3cnc4ccccc4n3)CC2)cc1` here?
Its Potency is inconclusive: 11.2 µM [activator, partial curve].

With `Fc1cccc(-c2nn[nH]n2)c1` as the compound, how does the Potency read?
Its Potency is “inactive”.

Which Potency does the source give for `CCOC(=O)CSc1nnc(-c2ccncc2)o1` here?
The Potency was “inactive”.

Which Potency does the source give for `COC(=O)CNC(=O)[C@@]1(Cc2ccccc2)C=C[C@@H](C)N1C(=O)c1ccccc1` here?
The Potency was active: 12.6 µM.

For `CC(C)(C)NC(=O)CCN1CCOCC1`, which Potency is on record?
Its Potency is inconclusive: 5.01 µM [activator, full curve].

With `COC(=O)C1CCN(C(=O)C2CCCCC2)CC1` as the compound, how does the Potency read?
Its Potency is inconclusive: 0.0089 µM [activator, full curve, poor fit].

Which Potency does the source give for `Cc1ccc2cc(CCNC(=O)Cc3cccs3)c(=O)[nH]c2c1` here?
Its Potency is inconclusive: 4.47 µM [activator, single point].

With `COc1ccc(-c2nn(-c3ccccc3)cc2C(=O)N/N=C/c2ccc([N+](=O)[O-])o2)cc1` as the compound, how does the Potency read?
The Potency was “inactive”.

With `COc1cccc(/C=N/n2cnc3ccccc32)c1OC` as the compound, how does the Potency read?
Its Potency is inconclusive: 22.4 µM [activator, single point].

For `CC(C)CNC(=O)c1ccccc1NC(=O)c1ccc(CSc2ccccc2)cc1`, which Potency is on record?
The Potency was “inactive”.

With `CN(c1ccc(C(=O)Nc2ccccc2C(F)(F)F)cc1)S(C)(=O)=O` as the compound, how does the Potency read?
Its Potency is inconclusive: 3.16 µM [activator, partial curve].

With `CCCCC(=O)Nc1ncc(Br)s1` as the compound, how does the Potency read?
The Potency was inconclusive: 3.98 µM [activator, full curve].

With `Cc1[nH]c2ccccc2c1C(c1ccccc1)c1ccc(Cl)s1` (centres undefined) as the compound, how does the Potency read?
Its Potency is “inactive”.

Which Potency does the source give for `Cc1cc(C)c(NC(=O)CN2C(=O)NC3(CCOc4ccccc43)C2=O)c(C)c1` (centres undefined) here?
Its Potency is inconclusive: 35.5 µM [activator, partial curve, poor fit].

With `Cc1ccc(NC(=O)CSc2nnc(NC(=O)c3ccc(S(=O)(=O)N4CCOCC4)cc3)s2)cc1` as the compound, how does the Potency read?
Its Potency is inconclusive: 25.1 µM [activator, single point].

For `CC(=O)NS(=O)(=O)c1ccc(NC(=O)CN2C(=O)C3C4C=CC(C4)C3C2=O)cc1` (centres undefined), which Potency is on record?
Its Potency is inconclusive: 3.98 µM [activator, single point].

Which Potency does the source give for `Cc1cnc(NC(=O)CN2CCN(c3ccccn3)CC2)s1` here?
Its Potency is inconclusive: 31.6 µM [activator, single point].

With `Cc1ccc(-n2nc(C)c3c2OC(N)=C(C#N)C3c2ccoc2)cc1` (centres undefined) as the compound, how does the Potency read?
The Potency was “inactive”.

With `CCOC(=O)c1[nH]c(C)c(C(=O)Nc2ccc(C)cc2C)c1C` as the compound, how does the Potency read?
The Potency was inconclusive: 1.26 µM [activator, full curve, poor fit].

With `COC(=O)c1cc(C(=O)Nc2ccc(S(N)(=O)=O)cc2)cc([N+](=O)[O-])c1` as the compound, how does the Potency read?
Its Potency is “inactive”.

For `COCCn1c(CN2CCc3ccccc3C2)nc2c1c(=O)n(C)c(=O)n2C`, which Potency is on record?
The Potency was “inactive”.

Which Potency does the source give for `COc1ccc2nc(NCCCO)[nH]c2c1` here?
Its Potency is “inactive”.

With `CCN1CCN(c2ccc(NC(=O)c3ccc4c(c3)OCO4)cc2)CC1` as the compound, how does the Potency read?
The Potency was active: 15.8 µM.

With `CC(C)C[C@@H](CC(=O)N[C@@H](CCCN)CC(=O)N[C@@H]1CCNC[C@H]1C(=O)N[C@H](CC(=O)N[C@@H](CCC(=O)O)CC(=O)O)CC(C)C)NC(=O)[C@@H]1CNCC[C@H]1N` as the compound, how does the Potency read?
Its Potency is “inactive”.

Which Potency does the source give for `N/C(=N\OC(=O)COc1ccc2ccccc2c1Br)c1cccnc1` here?
Its Potency is “inactive”.

Which Potency does the source give for `CCOc1ccc(CNC(=O)c2ccc3c(c2)N(CC)CCS3)cc1` here?
The Potency was inconclusive: 0.1 µM [activator, full curve, poor fit].

Which Potency does the source give for `CC(=O)Nc1nnc(-c2ccc(Cl)s2)o1` here?
The Potency was inconclusive: 7.94 µM [activator, partial curve].

Which Potency does the source give for `CCNC(=S)N(Cc1ccccc1)Cc1nc2ccccc2c(=O)[nH]1` here?
Its Potency is inconclusive: 0.251 µM [activator, full curve, poor fit].

With `Cn1c(CSc2nc3ccccc3s2)nnc1SCC(=O)NCCCN1CCOCC1` as the compound, how does the Potency read?
The Potency was “inactive”.

With `COC(=O)c1sccc1NC(=O)/C=C/c1ccc(Cl)cc1` as the compound, how does the Potency read?
Its Potency is inconclusive: 28.2 µM [activator, single point].

Which Potency does the source give for `CC(C)C(OC(=O)c1ccco1)C(=O)NCc1ccccc1` (centres undefined) here?
The Potency was inconclusive: 7.08 µM [activator, partial curve, poor fit].

With `CC(=O)Oc1ccc(-c2nc(-c3cccnc3)no2)cc1` as the compound, how does the Potency read?
The Potency was inconclusive: 15.8 µM [activator, single point].

For `CCOC(=O)c1cc(NC(=O)OC)c(C)nc1C`, which activity change, positive = activation is on record?
Its activity change, positive = activation is inconclusive: 34.4% [activator].

Which Potency does the source give for `CC1CCCN(c2ccc(C(=O)NCCc3ccccc3)cn2)C1` (centres undefined) here?
The Potency was active: 11.2 µM.

With `CC(=O)Nc1ccc(NC(=O)CN(c2ccccc2Cl)S(C)(=O)=O)cc1` as the compound, how does the Potency read?
The Potency was inconclusive: 11.2 µM [activator, partial curve].

With `Cc1cccc(-n2ncc3c(N)ncnc32)c1` as the compound, how does the Potency read?
Its Potency is “inactive”.

For `COCCNC(=O)c1ccc(-n2c(SCc3cccnc3)nc3ccccc3c2=O)cc1`, which Potency is on record?
Its Potency is inconclusive: 11.2 µM [activator, partial curve, poor fit].

Which Potency does the source give for `Cc1csc(Sc2ccc(C(=O)OCC(=O)Nc3ccc(F)cc3[N+](=O)[O-])cc2[N+](=O)[O-])n1` here?
The Potency was inconclusive: 7.94 µM [activator, partial curve, poor fit].

For `CCC(CC)C1=NN2C(=N)/C(=C\c3cc(C)n(-c4cccc(C)c4)c3C)C(=O)N=C2S1`, which Potency is on record?
Its Potency is “inactive”.

For `CCOC(=O)N1CCC(NC(=O)c2cc3c(-c4cccc(OC)c4)nn(C)c3s2)CC1`, which Potency is on record?
The Potency was inconclusive: 14.1 µM [activator, partial curve].

For `O=C(N/N=C/c1ccncc1)c1cccc(N/N=C/c2ccncc2)c1`, which Potency is on record?
The Potency was inconclusive: 35.5 µM [activator, single point].

With `O=C(NCc1nc2ccccc2[nH]1)c1ccco1` as the compound, how does the Potency read?
The Potency was “inactive”.

Which Potency does the source give for `Cc1nn2cc(-c3ccc(Cl)cc3)nc2s1` here?
Its Potency is active: 3.55 µM.

With `Cc1c(Br)c([N+](=O)[O-])nn1CC(=O)Nc1ccc(Cc2ccncc2)cc1` as the compound, how does the Potency read?
The Potency was “inactive”.

For `COc1cc(C(=O)Nc2nc(N)n(-c3ccccc3)n2)cc(OC)c1OC`, which Potency is on record?
Its Potency is inconclusive: 0.0562 µM [activator, full curve, poor fit].

With `CCCc1cc(C(=O)NCc2ccccc2)no1` as the compound, how does the Potency read?
Its Potency is inconclusive: 11.2 µM [activator, partial curve].

With `COc1cccc(-c2nc(=S)c3c(o2)CCCC3)c1` as the compound, how does the Potency read?
Its Potency is inconclusive: 22.4 µM [activator, single point].

Which Potency does the source give for `CCc1ccc(/C=C/C(=O)C2C(=O)c3ccccc3C2=O)cc1` here?
The Potency was inconclusive: 15.8 µM [activator, partial curve].

Which Potency does the source give for `S=C(NCc1ccccn1)Nc1ccc(Br)cc1Cl` here?
The Potency was active: 11.2 µM.

Which Potency does the source give for `CCOC(=O)C1=C(C)NC(=O)C1(NC(=O)c1cccnc1)C(F)(F)F` (centres undefined) here?
Its Potency is inconclusive: 3.16 µM [activator, partial curve, poor fit].

For `COc1cc(OC)nc(-n2ncc(Br)c(Br)c2=O)n1`, which Potency is on record?
Its Potency is “inactive”.

For `CC1CCc2noc(NC(=O)c3ccccc3[N+](=O)[O-])c2C1` (centres undefined), which Potency is on record?
Its Potency is “inactive”.

With `c1ccc2c(Nc3nc4c(s3)CCCC4)cccc2c1` as the compound, how does the Potency read?
Its Potency is inconclusive: 35.5 µM [activator, single point].

For `CCOC(=O)/C(N=Nc1ccc2c(c1)OCO2)=C(\C)O`, which Potency is on record?
The Potency was active: 11.2 µM.

Which Potency does the source give for `Cc1ccc(NC(=O)NC(=O)CSc2nnc(-c3ccc(Cl)cc3Cl)n2N)c(C)c1` here?
The Potency was inconclusive: 12.6 µM [activator, partial curve, poor fit].

With `CN1C(=O)NC(c2ccccc2)C2=C1CN(Cc1ccco1)C2=O` (centres undefined) as the compound, how does the Potency read?
The Potency was inconclusive: 3.16 µM [activator, single point].

For `CCc1ccccc1NC(=O)Cn1c(=O)n(CCCS(=O)(=O)C2CCCCC2)c(=O)c2ccccc21`, which Potency is on record?
The Potency was “inactive”.

Which Potency does the source give for `Cc1nn(Cc2ccccc2)c(C)c1NC(=O)CSc1nc(C2CC2)nc2c1cnn2-c1ccccc1` here?
Its Potency is inconclusive: 35.5 µM [activator, single point].

Which Potency does the source give for `O=c1c2ccccc2nnn1CSc1ncnc2ccccc12` here?
The Potency was inconclusive: 0.0141 µM [activator, full curve, poor fit].

Which Potency does the source give for `CCOc1cccc(/C=N/N2C(=O)CSC2=S)c1O` here?
The Potency was inconclusive: 22.4 µM [activator, single point].

From PubChem BioAssay AID1458 (National Center for Advancing Translational Sciences (NCATS), 2008)
